# According to article PMC6919601, “Identification of Plasmodium dipeptidyl aminopeptidase allosteric inhibitors by high throughput screening” (PLoS ONE, 2019):
# About 230 (0.21%) of roughly 110,000 compounds showed an effect of 50% or more. Some of the results follow.
# Target: DPAP1 (Plasmodium falciparum, UniProt Q8IIJ9)
# Test: primary screen, percent inhibition; read by cleavage of a fluorogenic dipeptide substrate; higher = more effect of the substance
# Design: species or system P. falciparum D10 trophozoite lysates; single well
# 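Further: 30 min substrate incubation versus DMSO and 10 µM JCP410 controls.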
# Sequence of DPAP1 (Q8IIJ9 whole entry, looked up): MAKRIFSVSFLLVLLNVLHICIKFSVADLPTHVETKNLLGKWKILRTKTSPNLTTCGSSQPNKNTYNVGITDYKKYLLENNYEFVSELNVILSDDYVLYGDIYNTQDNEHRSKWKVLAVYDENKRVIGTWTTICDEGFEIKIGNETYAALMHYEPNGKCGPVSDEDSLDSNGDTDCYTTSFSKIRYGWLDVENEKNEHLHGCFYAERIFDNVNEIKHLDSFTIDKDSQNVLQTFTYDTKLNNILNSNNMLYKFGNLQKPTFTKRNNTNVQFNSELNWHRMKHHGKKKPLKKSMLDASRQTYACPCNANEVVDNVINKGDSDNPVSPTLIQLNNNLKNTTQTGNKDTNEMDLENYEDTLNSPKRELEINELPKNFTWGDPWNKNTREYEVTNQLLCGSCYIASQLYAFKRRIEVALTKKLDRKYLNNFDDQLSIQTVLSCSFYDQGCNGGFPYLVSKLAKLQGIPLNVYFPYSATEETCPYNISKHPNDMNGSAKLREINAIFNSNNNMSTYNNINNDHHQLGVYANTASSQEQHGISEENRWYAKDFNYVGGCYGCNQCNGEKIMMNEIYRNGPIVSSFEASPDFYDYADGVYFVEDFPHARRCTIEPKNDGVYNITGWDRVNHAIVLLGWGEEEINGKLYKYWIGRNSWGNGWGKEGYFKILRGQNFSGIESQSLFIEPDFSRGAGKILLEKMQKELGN
row,Structure (SMILES),% Inhibition @ 10 uM [%]
1,Cc1sc(NC(=O)C(Sc2ccccc2)c2ccccc2)c(C(N)=O)c1C (stereo not shown),2.01
2,Cc1noc2ncnc(N3CCN(Cc4ccc5c(c4)OCO5)CC3)c12,-6.14
3,c1csc(C[n+]2ccc3ccccc3c2)c1,-0.318
4,Cc1sc2ncnc(N3CCOCC3)c2c1C,13.5
5,O=C(NCc1nnc(SCc2cccnc2)o1)c1ccccc1F,-7.21
6,CC(C)(C)c1coc2cc3oc(=O)c4c(c3cc12)CCC4,-2.57
7,CCSc1nc(O)c2c(n1)N=C(C)/C(=C(\O)OC)C2c1ccc(C(=O)OC)cc1 (stereo not shown),1.16
8,O=C1CCCN1c1ccc(S(=O)(=O)N2CCCCC2)cc1[N+](=O)[O-],-2.72
9,O=C(CN1C(=O)S/C(=C\c2ccc(-c3ccccc3)o2)C1=O)N1CCCC1,3.26
10,CCc1cccc(C)c1-n1cccc1/C=C1/C(=N)N2C=CSC2=NC1=O,6.63
11,COc1ccccc1NC(=O)C1C2C3CCC(C3)C12 (stereo not shown),-4.97
12,Cc1ccc(C(C)C)c(Oc2ccc(C(=O)O)cc2)c1,-3.27
13,CC(C)(C)c1ccc(OCCCn2ccnc2)cc1,-5.84
14,CCc1ccc(C2c3c(-c4ccccc4O)n[nH]c3C(=O)N2CCCOC(C)C)cc1 (stereo not shown),5.17
15,COc1nc(NCC(C)C)nc(Oc2ccc(O)nn2)n1,-0.958
16,Cc1c2cnn(CC(=O)N3CCOCC3)c(=O)c2c(C)n1Cc1ccc(Cl)cc1,1.22
17,O=C(Nc1cnc2ccccc2c1)c1cccc(F)c1,1.69
18,Cc1nn2c(C(F)(F)F)cc(-c3ccco3)nc2c1-c1ccccc1,-1.43
19,CCOc1cc(C2C(C(=O)c3cc4ccccc4o3)=C(O)C(=O)N2Cc2ccco2)ccc1O (stereo not shown),-1.96
20,CCOC(=O)c1cnc2cc(-c3ccc(C)cc3)nn2c1-c1ccccc1,1.52
21,CC1(C)Cc2c(c(N3CCOCC3)nc3sc(C(=O)NCc4ccccc4)c(N)c23)CO1,-1.72
22,CC1=NCCN1S(=O)(=O)c1cc(C)c(Cl)cc1Cl,-2.65
23,FC(F)(F)c1cccc(CSc2nc3cccnc3[nH]2)c1,-4.14
24,N#CCNC(=O)c1ccc(OCc2ccccc2)cc1,9
25,O=C(CCCCCCC(=O)Nc1cccc2ccccc12)Nc1cccc2ccccc12,-1.29

row,Structure (SMILES),% Inhibition @ 10 uM [%]
1,COc1ccc(C2CC(=O)N=C(Nc3nc(C)c4ccc(C)cc4n3)N2)cc1 (stereo not shown),19.2
2,Cc1ccc2onc(CC(=O)N3CCN(c4ccccn4)CC3)c2c1,3.71
3,O=C1NC2(CCCCC2)N(C(=O)c2ccccc2Br)C2=C1CCCC2,0.366
4,CCc1cccc2c(C(=O)C(F)(F)F)cn(CC(=O)N(CC)CC)c12,-2.9
5,CCCCN1CCN(c2nc(-c3ccccc3)c3cc(C)ccc3n2)CC1,-7.89
6,CC1=C(C(=O)Nc2ccccc2)C(c2cccs2)C(C#N)=C(SCC(N)=O)N1 (stereo not shown),0.962
7,Cc1nn(CC(O)Cn2cnc3c2c(=O)n(C)c(=O)n3C)c(C)c1Br (stereo not shown),-1.18
8,CCCS(=O)(=O)N1CCC(C(=O)NCCCN2CCOCC2)CC1,-5.43
9,CSc1ccc(C2C=C(c3ccc(Cl)cc3)Nc3ncnn32)cc1 (stereo not shown),-7.08
10,COCCCn1c(=O)c2sccc2n2c(CCCC(=O)NCc3ccccc3)nnc12,1.1
11,COc1ccc(C2CC(=O)c3cnc(N)nc3C2)cc1OC (stereo not shown),6.57
12,CCc1ccc(CNCc2c(C(=O)O)n(Cc3ccccc3C)c3cc(OC)ccc23)cc1,2
13,COC(=O)c1c(NC(=O)c2nc3ncccn3n2)sc(C(=O)N(C)C)c1C,4.08
14,CC(C)(C)c1ccc(C(=O)N2CCC(C(=O)N3CCN(c4ccccc4F)CC3)CC2)cc1,-2.46
15,COc1ccc(CCNc2oc(/C=C/c3ccc(F)cc3)nc2C#N)cc1OC,2.54
16,COc1ccccc1N1C(=O)C2C(c3cccc(C)c3)OC3(C(=O)c4ccccc4C3=O)C2C1=O (stereo not shown),-2.98
17,O=C1NCCCN1Cc1cccc(Cl)c1,-1.75
18,O=C(CCc1nnc2ccc(N3CCOCC3)nn12)NCc1ccc2c(c1)OCO2,-6.95
19,Cn1c(C(O)(c2ccccc2)C(O)c2ccco2)nc2ccccc21 (stereo not shown),-0.996
20,Cc1nn(CCCC(=O)N2CC(C)CC(C)C2)c(=O)c2c1sc1ccccc12 (stereo not shown),-3.43
21,CCOCCCNC(=O)C1c2ccccc2C(=O)N(C2CCCC2)C1c1cccs1 (stereo not shown),-1.4
22,CCN(CC)C(=O)CNC(=S)N(CCCN1CCOCC1)Cc1cccs1,-2.14
23,O=C(Cn1ncc2c3ccccc3n(Cc3cccc(Cl)c3)c2c1=O)N1CCOCC1,1.8
24,COc1ccccc1NC(=O)C1CC(=O)N(c2ccc(F)cc2)C1 (stereo not shown),3.69
